Data: the supplement of paper PMC4967469

Assays:
Experiment in all cases: Viability of human cancer cell lines after 72 h of drug (GDSC screen)
[1] = compound: CCc1nc(N)nc(N)c1-c1ccc(Cl)cc1 [Pyrimethamine]; settings: top dose 20 µM; top dose inferred
Procedure: (§1)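 Human cancer cell lines in 384-well plates, medium with 10% serum, drug for 72 h over a 256-fold dose range (nine 2-fold or five 4-fold steps up to the top dose). Adherent lines were fixed and stained with the nucleic acid dye Syto60, suspension lines read with resazurin; signal relative to control wells, capped at 0 and 100%. One two-parameter sigmoid per drug and line, fitted in a mixed model over all curves with the slope shared within a line.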

[2] = compound: NC(=O)Nc1sc(-c2ccc(F)cc2)cc1C(N)=O [TPCA-1]; settings: top dose 20 µM
Procedure: as §1

[3] = compound: CN1CCN(CCOc2cc(OC3CCOCC3)c3c(Nc4c(Cl)ccc5c4OCO5)ncnc3c2)CC1 [AZD-0530]; settings: top dose 2 µM
Procedure: as §1

[4] = compound: Cc1ccc(NC(=O)c2ccc(CN3CCN(C)CC3)cc2)cc1Nc1nccc(-c2cccnc2)n1 [Imatinib]; settings: top dose 2 µM
Procedure: as §1

[5] = compound: C/C(=C\c1csc(C)n1)[C@@H]1C[C@@H]2O[C@]2(C)CCC[C@H](C)[C@H](O)[C@@H](C)C(=O)C(C)(C)[C@@H](O)CC(=O)O1 [Epothilone B]; settings: top dose 0.032 µM; top dose inferred
Procedure: as §1

[6] = compound: C[C@@H](N)c1ccc(C(=O)Nc2ccnc3[nH]ccc23)cc1 [Y-39983]; settings: top dose 20 µM; top dose inferred
Procedure: as §1

[7] = compound: CCCS(=O)(=O)Nc1ccc(F)c(C(=O)c2c[nH]c3ncc(Cl)cc23)c1F [PLX4720]; settings: top dose 10 µM
Procedure: as §1

[8] = compound: CC(C)CC(=O)Nc1n[nH]c2c1CN(C(=O)C1CCN(C)CC1)C2(C)C [PHA-793887]; settings: top dose 10.24 µM
Procedure: as §1

[9] = screen: GDSC drug entry 1371, top dose inferred

Which AUC [1] does the source give for ROS-50 (B-cell leukaemia, suspension) here?
The AUC was 0.942.

And the pIC50 [1]?
The pIC50 was less than 4.70.

And the AUC [2]?
Its AUC is 0.759.

And the pIC50 [2]?
Its pIC50 is 5.05.

What about the AUC [3] of the same cell line?
The AUC was 0.97.

What about the pIC50 [3] of the same cell line?
The pIC50 was less than 5.70.

What about the AUC [4] of the same cell line?
The AUC was 0.984.

And the pIC50 [4]?
Its pIC50 is less than 5.70.

What about the AUC [5] of the same cell line?
The AUC was 0.963.

And the pIC50 [5]?
The pIC50 was less than 7.49.

What about the AUC [6] of the same cell line?
The AUC was 0.943.

What about the pIC50 [6] of the same cell line?
The pIC50 was less than 4.70.

And the AUC ([7]; screen: GDSC drug entry 1036)?
Its AUC is 0.966.

What about the pIC50 ([7]; screen: GDSC drug entry 1036) of the same cell line?
The pIC50 was less than 5.00.

What about the AUC [7, 9] of the same cell line?
The AUC was 0.981.

And the pIC50 [7, 9]?
Its pIC50 is less than 5.00.

And the AUC [8]?
The AUC was 0.92.

And the pIC50 [8]?
The pIC50 was less than 4.99.

Which AUC [1] does the source give for Raji (Burkitt lymphoma, suspension) here?
Its AUC is 0.937.

And the pIC50 [1]?
Its pIC50 is less than 4.70.

What about the AUC [2] of the same cell line?
Its AUC is 0.852.

What about the pIC50 [2] of the same cell line?
Its pIC50 is 4.86.

And the AUC [3]?
Its AUC is 0.989.

What about the pIC50 [3] of the same cell line?
The pIC50 was less than 5.70.

And the AUC [4]?
The AUC was 0.99.

And the pIC50 [4]?
The pIC50 was less than 5.70.

And the AUC [5]?
Its AUC is 0.938.

What about the pIC50 [5] of the same cell line?
The pIC50 was less than 7.49.

What about the AUC [6] of the same cell line?
The AUC was 0.933.

And the pIC50 [6]?
Its pIC50 is less than 4.70.

What about the AUC ([7]; screen: GDSC drug entry 1036) of the same cell line?
Its AUC is 0.969.

And the pIC50 ([7]; screen: GDSC drug entry 1036)?
The pIC50 was less than 5.00.

And the AUC [7, 9]?
The AUC was 0.984.

And the pIC50 [7, 9]?
Its pIC50 is less than 5.00.

What about the AUC [8] of the same cell line?
The AUC was 0.818.

What about the pIC50 [8] of the same cell line?
The pIC50 was 5.27.

Which AUC [1] does the source give for SF539 (glioma, adherent) here?
Its AUC is 0.649.

What about the pIC50 [1] of the same cell line?
The pIC50 was 5.51.

What about the AUC [2] of the same cell line?
The AUC was 0.973.

And the pIC50 [2]?
The pIC50 was less than 4.70.

And the AUC [3]?
Its AUC is 0.986.

And the pIC50 [3]?
The pIC50 was less than 5.70.

What about the AUC [4] of the same cell line?
Its AUC is 0.984.

And the pIC50 [4]?
Its pIC50 is less than 5.70.

And the AUC [5]?
Its AUC is 0.517.

And the pIC50 [5]?
The pIC50 was 8.65.

What about the AUC [6] of the same cell line?
The AUC was 0.977.

What about the pIC50 [6] of the same cell line?
The pIC50 was less than 4.70.

And the AUC ([7]; screen: GDSC drug entry 1036)?
The AUC was 0.989.

What about the pIC50 ([7]; screen: GDSC drug entry 1036) of the same cell line?
The pIC50 was less than 5.00.

And the AUC [7, 9]?
Its AUC is 0.969.

And the pIC50 [7, 9]?
Its pIC50 is less than 5.00.

And the AUC [8]?
Its AUC is 0.782.

What about the pIC50 [8] of the same cell line?
The pIC50 was 5.42.

Which AUC [1] does the source give for ST486 (Burkitt lymphoma, suspension) here?
Its AUC is 0.796.

What about the pIC50 [1] of the same cell line?
The pIC50 was 5.09.

What about the AUC [2] of the same cell line?
The AUC was 0.315.

And the pIC50 [2]?
The pIC50 was 6.39.

What about the AUC [3] of the same cell line?
Its AUC is 0.825.

What about the pIC50 [3] of the same cell line?
The pIC50 was 5.99.

What about the AUC [4] of the same cell line?
The AUC was 0.735.

What about the pIC50 [4] of the same cell line?
The pIC50 was 6.27.

What about the AUC [5] of the same cell line?
The AUC was 0.395.

And the pIC50 [5]?
Its pIC50 is 8.97.

What about the AUC [6] of the same cell line?
Its AUC is 0.273.

What about the pIC50 [6] of the same cell line?
The pIC50 was 6.51.

What about the AUC ([7]; screen: GDSC drug entry 1036) of the same cell line?
Its AUC is 0.953.

What about the pIC50 ([7]; screen: GDSC drug entry 1036) of the same cell line?
Its pIC50 is less than 5.00.

What about the AUC [7, 9] of the same cell line?
The AUC was 0.989.

And the pIC50 [7, 9]?
Its pIC50 is less than 5.00.

What about the AUC [8] of the same cell line?
Its AUC is 0.171.

And the pIC50 [8]?
Its pIC50 is 7.12.

With “SUP-T1 (T-cell lymphoblastic leukaemia, suspension)” as the cell line, how does the AUC [1] read?
Its AUC is 0.985.

What about the pIC50 [1] of the same cell line?
Its pIC50 is less than 4.70.

What about the AUC [2] of the same cell line?
Its AUC is 0.736.

And the pIC50 [2]?
The pIC50 was 5.26.

What about the AUC [3] of the same cell line?
The AUC was 0.99.

What about the pIC50 [3] of the same cell line?
The pIC50 was less than 5.70.

What about the AUC [4] of the same cell line?
Its AUC is 0.91.

What about the pIC50 [4] of the same cell line?
Its pIC50 is less than 5.70.

And the AUC [5]?
The AUC was 0.786.

What about the pIC50 [5] of the same cell line?
The pIC50 was 7.90.

What about the AUC [6] of the same cell line?
The AUC was 0.957.

What about the pIC50 [6] of the same cell line?
The pIC50 was less than 4.70.

What about the AUC ([7]; screen: GDSC drug entry 1036) of the same cell line?
Its AUC is 0.957.

What about the pIC50 ([7]; screen: GDSC drug entry 1036) of the same cell line?
The pIC50 was less than 5.00.

And the AUC [7, 9]?
The AUC was 0.989.

What about the pIC50 [7, 9] of the same cell line?
Its pIC50 is less than 5.00.

What about the AUC [8] of the same cell line?
The AUC was 0.544.

And the pIC50 [8]?
Its pIC50 is 6.08.

SW954 (urogenital system, adherent) was tested. Which AUC [1] did it give?
The AUC was 0.962.

What about the pIC50 [1] of the same cell line?
Its pIC50 is less than 4.70.

And the AUC [2]?
Its AUC is 0.73.

And the pIC50 [2]?
Its pIC50 is 5.24.

And the AUC [3]?
The AUC was 0.926.

What about the pIC50 [3] of the same cell line?
The pIC50 was less than 5.70.

And the AUC [4]?
Its AUC is 0.984.

And the pIC50 [4]?
The pIC50 was less than 5.70.

And the AUC [5]?
The AUC was 0.291.

And the pIC50 [5]?
Its pIC50 is 9.29.

And the AUC [6]?
The AUC was 0.869.

And the pIC50 [6]?
The pIC50 was 4.73.

And the AUC ([7]; screen: GDSC drug entry 1036)?
The AUC was 0.968.

And the pIC50 ([7]; screen: GDSC drug entry 1036)?
Its pIC50 is less than 5.00.

What about the AUC [7, 9] of the same cell line?
Its AUC is 0.955.

And the pIC50 [7, 9]?
The pIC50 was less than 5.00.

What about the AUC [8] of the same cell line?
The AUC was 0.817.

And the pIC50 [8]?
The pIC50 was 5.23.

TE-12 (oesophagus, suspension) was tested. Which AUC [1] did it give?
The AUC was 0.889.

And the pIC50 [1]?
Its pIC50 is less than 4.70.

What about the AUC [2] of the same cell line?
The AUC was 0.85.

What about the pIC50 [2] of the same cell line?
Its pIC50 is less than 4.70.

What about the AUC [3] of the same cell line?
The AUC was 0.641.

And the pIC50 [3]?
The pIC50 was 6.47.

What about the AUC [4] of the same cell line?
Its AUC is 0.98.

What about the pIC50 [4] of the same cell line?
Its pIC50 is less than 5.70.

What about the AUC [5] of the same cell line?
Its AUC is 0.588.

What about the pIC50 [5] of the same cell line?
The pIC50 was 8.44.

What about the AUC [6] of the same cell line?
Its AUC is 0.958.

And the pIC50 [6]?
Its pIC50 is less than 4.70.

What about the AUC ([7]; screen: GDSC drug entry 1036) of the same cell line?
Its AUC is 0.912.

What about the pIC50 ([7]; screen: GDSC drug entry 1036) of the same cell line?
Its pIC50 is less than 5.00.

What about the AUC [7, 9] of the same cell line?
The AUC was 0.933.

And the pIC50 [7, 9]?
Its pIC50 is less than 5.00.

What about the AUC [8] of the same cell line?
Its AUC is 0.889.

What about the pIC50 [8] of the same cell line?
Its pIC50 is less than 4.99.

pIC50: −log10 of the molar value. By IC50 is meant the dose at which the fit gives 50% viability; fits outside the tested doses are given as limits. AUC is the area under the same curve over the 256-fold range up to the top dose, as a fraction: 1 means no effect, lower means more sensitive. For part of these data: A top dose marked as inferred was calculated from the reported fits. For part of these data: Where an entry number is given, a second screen of the drug exists; the two often differ.
